# Laboratory results taken from the supplement of paper PMC8728848.
# Many of the other results were omitted from the sample, so the strongest signals are more common in it than they were.
# Tests used:
# Neu5Gc(a2-6)GalNAc = experiment: glycan array binding signal (z-score within array); higher = stronger binding; details: glycan notation: IUPAC condensed, linker removed
# Method in brief: (§1)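 Glycan array data came from 3228 arrays in the Consortium for Functional Glycomics database, and only arrays with an available protein sequence were kept. Glycan names were put into IUPAC-condensed notation, and columns mapping to the same glycan were averaged. The binding signal is a within-array Z-score, averaged across arrays of one protein sequence run at different concentrations or buffers and across linkers. A negative Z-score can be read as non-binding.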
# [1] = test system: Neu5Gc(a2-8)Neu5Gc(a2-6)Gal(b1-4)GlcNAc; experiment: as above; details: glycan notation: IUPAC condensed, linker removed
# Method in brief: as §1
Substance,glycan array binding signal (z-score) (Neu5Gc(a2-6)GalNAc),glycan array binding signal (z-score) [1]
L-Ficolin (Homo sapiens) (chain not printed),1.27,
Siglec-2 (Homo sapiens) (chain not printed),-0.208,
Gal 3 (Homo sapiens) (chain not printed),,-0.187
